# About 100 (0.036%) of roughly 280,000 compounds were called active. Inconclusive means that the source gave no clear call. Such entries were picked first, then a sample of the others. Calls follow the shape of the dose curve; as a rule, active = well fitted inhibition curve with a large enough effect in the signal ratio, with a control signal flat (not every such curve was filed as active); inconclusive = small, poorly fitted or top-dose-only effect, or effect the other way, or a change in a side signal; inactive = no such curve, though single readings can be large or run the other way; the % refers to the signal ratio. Where the call is inconclusive, the potency comes from a doubtful curve fit. A note “side channel” means that the fit belongs to a control or component signal, not to the main read-out.
# Biological target: Muscleblind-like protein 1 (Homo sapiens) (UniProt Q9NR56)
# Chain of UniProt Q9NR56 (Q9NR56 whole entry, looked up): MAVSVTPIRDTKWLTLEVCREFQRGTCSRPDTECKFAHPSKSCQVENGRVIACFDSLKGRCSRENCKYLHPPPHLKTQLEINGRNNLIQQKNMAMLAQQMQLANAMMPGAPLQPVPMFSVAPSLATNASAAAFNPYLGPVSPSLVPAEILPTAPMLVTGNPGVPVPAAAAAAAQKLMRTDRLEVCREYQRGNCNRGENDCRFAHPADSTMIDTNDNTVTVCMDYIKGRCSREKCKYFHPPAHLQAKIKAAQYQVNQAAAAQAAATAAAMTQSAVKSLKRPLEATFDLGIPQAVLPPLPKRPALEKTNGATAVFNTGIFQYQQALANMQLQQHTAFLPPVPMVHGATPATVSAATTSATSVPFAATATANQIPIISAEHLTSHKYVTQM
# Test: qHTS Assay for Inhibitors of MBNL1-poly(CUG) RNA binding
# Conditions: TR-FRET MBNL1-His/biotin-(CUG)12 binding, 665/545 ratio; series mostly up to 57.5 µM
# How it was run: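 His-tagged MBNL1 binding to biotinylated (CUG)12 RNA was measured by TR-FRET using terbium anti-His antibody (0.055 ng/ul final) and streptavidin-XL665 (5 nM final). Compounds were titrated 92 nM to 58 uM; 60 min at room temperature.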
# Potency is read from the fitted curve at half-maximal effect; tags tell the direction and shape of the fitted curve or compound fluorescence and quenching.
row,Structure (SMILES),Potency
1,COc1ccccc1CNCC(=O)NCc1ccc(C)cc1,inactive
2,O=C(O)c1cccc(Nc2ccc3nonc3c2[N+](=O)[O-])c1,"inconclusive: 8.91 µM [quencher, side channel, partial curve]"
3,O=c1[nH]cnc2nc(-c3ccccc3)c(-c3ccccc3)nc12,"inconclusive: 11.2 µM [quencher, side channel, partial curve]"
4,CSc1nnc2c(n1)[nH]c1c(C)cccc12,"inconclusive: 8.91 µM [quencher, side channel, partial curve]"
5,CC(C)NCC1CCc2cc(CO)c([N+](=O)[O-])cc2N1 (stereo not given),"inconclusive: 39.8 µM [quencher, single point]"
6,O=C(O)c1cccc(CN2C(=O)S/C(=C/c3cccc([N+](=O)[O-])c3)C2=O)c1,"inconclusive: 22.4 µM [quencher, side channel, single point]"
7,O=S(=O)(c1cccc(NC(=S)N2CCN(c3cccc(Cl)c3)CC2)c1)C(F)F,inactive
8,N#C/C(=C\C=C\c1ccccc1)C(=O)N1CCCC1,"inconclusive: 25.1 µM [quencher, partial curve]"
9,O=C(Nc1nnc(C2=COCCO2)o1)c1ccc([N+](=O)[O-])s1,"inconclusive: 39.8 µM [quencher, single point]"
10,CN(C)c1ccc(/C=C/c2ccncc2)cc1,"inconclusive: 14.1 µM [quencher, side channel, partial curve]"
11,COC(=O)C1=C(CN2CCCc3ccccc32)NC(=O)NC1c1ccc(F)cc1 (stereo not given),inactive
12,COC/C=C/C1=CC2=CC(=O)C(C)(OC(=O)c3cnc4ccccc4n3)C(=O)C2=CN1CCCOC(C)C (stereo not given),"inconclusive: 31.6 µM [quencher, side channel, partial curve]"
13,C=CCN(CC=C)S(=O)(=O)c1ccc2nsnc2c1,"inconclusive: 15.8 µM [quencher, partial curve]"
14,COc1cc(/C=C/c2nc3ccccc3s2)cc(OC)c1O,"inconclusive: 39.8 µM [quencher, side channel, single point]"
15,CCOc1cc(C(=S)N2CCCC2)ccc1OCC(=O)Nc1c(C)cc(C)cc1C,inactive
16,CCCCC[C@H]1CN(CCCC)C(=O)[C@@H]1CC(=O)NCc1ccccc1,inactive
17,O=C1OCC(c2ccc(Cl)s2)=C1c1ccccc1[N+](=O)[O-],"inconclusive: 28.2 µM [quencher, side channel, single point]"
18,O=C(NC(=S)NCCc1ccccc1)c1ccccc1,inactive
19,c1cncc(Nc2nc(-c3cccs3)cs2)c1,"inconclusive: 17.8 µM [quencher, side channel, single point]"
20,O=C1C2C3C=CC(C4CC34)C2C(=O)N1/N=C/c1ccc([N+](=O)[O-])s1 (stereo not given),"inconclusive: 2.24 µM [quencher, side channel, partial curve]"
21,COc1ccc(N2C(=O)C(Cl)=C(N3CCCC(C)C3)C2=O)cc1 (stereo not given),"inconclusive: 28.2 µM [quencher, side channel, partial curve]"
22,O=C(N/N=C\c1ccc([N+](=O)[O-])o1)c1cncc(Br)c1,"inconclusive: 11.2 µM [quencher, side channel, partial curve]"

row,Structure (SMILES),Potency
1,N/C(=N\OC(=O)/C=C/c1ccccc1Cl)c1ccncc1,"inconclusive: 8.91 µM [quencher, side channel, partial curve]"
2,Cc1ccccc1-n1c(=O)c(C#N)cc2c(=O)n3ccccc3nc21,"inconclusive: 10 µM [quencher, partial curve]"
3,C(=N\n1cnnc1)/c1nc2ccccc2[nH]1,inactive
4,O=C(N/N=C/c1ccc(-c2ccc([N+](=O)[O-])cc2)o1)c1cccnc1,"inconclusive: 2 µM [quencher, side channel, full curve]"
5,CCCC(=O)Nc1nnc(CC(=O)N2CCCC2)s1,"inconclusive: 22.4 µM [fluorescent, side channel, partial curve, poor fit]"
6,CCSc1ccccc1C(=O)Nc1cc(OC)c(OC)c(OC)c1,inactive
7,O=C(NNC(=O)c1sccc1-n1cccc1)c1ccccc1,inactive
8,Cc1nc2ncccn2c1-c1csc(Nc2ccc(N(C)C)cc2)n1,"inconclusive: 20 µM [quencher, side channel, single point]"
9,CC(=O)N1N=C(N)SC1c1cccc([N+](=O)[O-])c1 (stereo not given),"inconclusive: 12.6 µM [quencher, side channel, partial curve]"
10,Cn1c(SCC(=O)NC(=O)c2cccc([N+](=O)[O-])c2)nnc1-c1ccc(F)cc1,"inconclusive: 14.1 µM [quencher, side channel, partial curve]"
11,C1=CC2c3ccccc3NC(c3ccncc3)C2C1 (stereo not given),"inconclusive: 25.1 µM [quencher, side channel, partial curve]"
12,CCOc1ccccc1-n1c(=S)sc2c(=O)n(-c3ccccc3)c(=S)[nH]c21,"inconclusive: 25.1 µM [quencher, side channel, single point]"
13,Cc1noc(C)c1CSCC(=O)N1CCN(c2ccc([N+](=O)[O-])cc2)CC1,"inconclusive: 15.8 µM [quencher, side channel, partial curve]"
14,Cc1nc(C(=O)Nc2ccc(Cl)cc2)nn1-c1ccc([N+](=O)[O-])cc1,"inconclusive: 5.01 µM [quencher, side channel, full curve]"
15,O=C(COC(=O)CNC(=O)c1cccc([N+](=O)[O-])c1)Nc1nc2ccccc2s1,"inconclusive: 39.8 µM [quencher, single point]"
16,Cc1c(Br)c(C(=O)N2CCc3ccccc32)nn1C,"inconclusive: 25.1 µM [fluorescent, side channel, partial curve, poor fit]"
17,CCNCc1cc([N+](=O)[O-])ccc1OCC,"inconclusive: 20 µM [quencher, side channel, partial curve]"
18,COc1ccc(OC)c(-c2cnc(OC(C)(C)C)nc2OC(C)(C)C)c1,inactive
19,O=C(/C=C/c1c(F)cccc1Cl)NCc1ccc2c(c1)OCO2,"inconclusive: 35.5 µM [fluorescent, side channel, single point]"
20,Cc1ccc(S(=O)(=O)N2CCN(c3ccc(C(=O)N4CCOCC4)cc3[N+](=O)[O-])CC2)cc1,"inconclusive: 20 µM [quencher, side channel, partial curve]"
21,CCC(=O)N1CCN(c2ccccc2NC(=S)NC(=O)c2cccc([N+](=O)[O-])c2)CC1,"inconclusive: 20 µM [quencher, side channel, partial curve]"
22,Cc1n[nH]c(=S)n1/N=C/c1ccccc1OCc1ccc(Cl)cc1,inactive

row,Structure (SMILES),Potency
1,COc1cc(C(=O)OCC(=O)N2CCOCC2)c([N+](=O)[O-])cc1OC,"inconclusive: 25.1 µM [quencher, partial curve]"
2,Cc1ccc(S(=O)(=O)c2nc(-c3cccs3)oc2NCCCN(C)C)cc1,"inconclusive: 39.8 µM [quencher, single point]"
3,O=C1C=C(N2CCOCC2)c2ccccc2C1=O,"inconclusive: 35.5 µM [quencher, side channel, single point]"
4,O=C1c2ccc(Oc3ccc([N+](=O)[O-])cc3)cc2C(=O)N1c1ccncc1,"inconclusive: 3.16 µM [quencher, side channel, full curve]"
5,NC(=O)CSc1oc(-c2ccco2)nc1S(=O)(=O)c1ccccc1,"inconclusive: 44.7 µM [quencher, side channel, single point]"
6,Fc1ccc(C(CCNCc2ccccn2)c2ccc(Cl)cc2)cc1 (stereo not given),inactive
7,Cc1ccc(CNC(=O)CCNS(=O)(=O)c2ccc3c(c2)c(=O)n(C)c(=O)n3C)cc1,inactive
8,CCc1[nH]nc2c1C(c1ccc(Br)s1)C(C#N)=C(N)O2 (stereo not given),"inconclusive: 31.6 µM [quencher, side channel, single point]"
9,Cc1ccccc1N1CCN(Cc2ccc([N+](=O)[O-])o2)CC1,"inconclusive: 11.2 µM [quencher, side channel, partial curve, poor fit]"
10,c1ccc(-n2ncc3c(NCc4cccs4)ncnc32)cc1,inactive
11,C=CCn1c(N)c(C(=O)NCc2cccnc2)sc1=S,"inconclusive: 14.1 µM [quencher, side channel, partial curve]"
12,Brc1ccccc1C1CC(c2ccccc2)=Nc2ccccc2N1 (stereo not given),inactive
13,Cc1ccc2c(=O)cc(C(=O)NC3CCS(=O)(=O)C3)oc2c1C (stereo not given),"inconclusive: 15.8 µM [quencher, side channel, partial curve]"
14,Brc1cc2c(cc1CSc1ncccn1)OCO2,inactive
15,COC(=O)CCC(=O)OC1(C)C(=O)C=C2C=C(C3CC3)N(C(CO)CO)C=C2C1=O (stereo not given),"inconclusive: 17.8 µM [quencher, side channel, partial curve]"
16,CC(C)(C)CC(=O)NC(=S)NCc1ccccc1,inactive
17,COc1cc(/C=N/n2nnnc2N)ccc1OCC#N,"inconclusive: 15.8 µM [quencher, side channel, partial curve]"
18,CCOC(=O)c1c(NC(=O)CCC(=O)O)sc2c1CCCCC2,inactive
19,COc1ccc2nc3oc(C(=O)N4CC(C)CC(C)C4)cc3cc2c1 (stereo not given),"inconclusive: 28.2 µM [quencher, side channel, partial curve]"
20,CN1CCOC(c2ccccc2)c2ccccc2C1 (stereo not given),inactive
21,Cc1cccc(OCCCCNCc2ccccc2)c1,inactive
